# Over roughly 18,000 sequences, “TetR repression strength (sort-seq, GFP reporter)” has its median near 0.23; the highest 2% begin near 0.68. Some of the results follow.
# Target: TetR (class B, Tn10) (UniProt P04483)
# Assay: TetR repression strength (sort-seq, GFP reporter) (relative to tetO2 = 1); higher = stronger repression
# Settings: E. coli
# In short: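 Repression strength was calculated by subtracting the read-weighted mean bin from the top bin index plus one and dividing by the unaltered operator's value. The plasmid library was low-copy in E. coli SIG10-MAX, with eight randomized operator positions between a constitutive promoter and sfGFP and constitutive TetR. Cultures grew 5 h at 37 °C in LB containing 50 µg/mL chloramphenicol before 10^6 cells were sorted by FACS into 13 fluorescence bins, each sequenced on Illumina. Three independent transformations were averaged for members having ≥30 reads in all replicates and a CV ≤0.5.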
# UniProt P04483, sequence (P04483 whole entry): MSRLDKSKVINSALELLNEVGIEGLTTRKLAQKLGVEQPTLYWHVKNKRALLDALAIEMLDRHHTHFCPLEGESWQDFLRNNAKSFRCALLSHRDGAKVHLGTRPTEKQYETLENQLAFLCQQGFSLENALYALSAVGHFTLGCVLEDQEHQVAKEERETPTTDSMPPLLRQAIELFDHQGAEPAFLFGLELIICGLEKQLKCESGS
row,Sequence,TetR repression strength
1,TCCCCTGGAGTTGACGAGA,0.178
2,TCCCCAGCAGTAGGAGAGA,0.174
3,TCCCTTAGAGTTATAGAGA,0.219
4,TCCCTATAAGTGTAGGAGA,0.338
5,TCCCTACAAGTGTTTGAGA,0.295
6,TCCCTAGCAGTTGAGGAGA,0.0558
7,TCCCTGTTAGTAGCGGAGA,0.235
8,TCCCTCAGAGTGGCCGAGA,0.387
9,TCCCGTAGAGTGGACGAGA,0.161
10,TCCCGGTGAGTCGCGGAGA,0.283
11,TCCCTATGAGTGACAGAGA,0.527
12,TCCCGGTGAGTGACGGAGA,0.203
13,TCCCACTGAGTGCCAGAGA,0.0946
14,TCCCTGGGAGTCGAAGAGA,0.196
15,TCCCGCATAGTACATGAGA,0.175
16,TCCCGCTAAGTACAGGAGA,0.0492
17,TCCCTAAGAGTGCAAGAGA,0.339
18,TCCCTACGAGTAGACGAGA,0.607
19,TCCCCTGGAGTATTAGAGA,0.215
20,TCCCGGCCAGTGATGGAGA,0.371
21,TCCCTGAGAGTTATCGAGA,0.122
22,TCCCGCGTAGTGACTGAGA,0.334
23,TCCCAGTGAGTGTTAGAGA,0.231
24,TCCCAATGAGTTCAGGAGA,0.243
25,TCCCGCGAAGTTGTTGAGA,0.112
26,TCCCGAGGAGTACTCGAGA,0.132

row,Sequence,TetR repression strength
1,TCCCCTCCAGTGGCGGAGA,0.0475
2,TCCCACCGAGTGATAGAGA,1.21
3,TCCCGGCGAGTCATGGAGA,0.185
4,TCCCAGTGAGTTCACGAGA,0.16
5,TCCCTACAAGTAGATGAGA,0.312
6,TCCCTACTAGTTTACGAGA,0.207
7,TCCCAAATAGTGATCGAGA,0.448
8,TCCCCCGCAGTAGCGGAGA,0.153
9,TCCCGACCAGTAAGGGAGA,0.264
10,TCCCCCAAAGTTCGTGAGA,0.13
11,TCCCGGGTAGTGGATGAGA,0.258
12,TCCCGACTAGTACGTGAGA,0.377
13,TCCCGGTTAGTTTAAGAGA,0.185
14,TCCCGCACAGTATGTGAGA,0.107
15,TCCCATGAAGTGGGAGAGA,0.268
16,TCCCAGGGAGTTAACGAGA,0.38
17,TCCCATAGAGTAGCTGAGA,0.125
18,TCCCGCCGAGTATCTGAGA,0.279
19,TCCCCGGAAGTCCGCGAGA,0.21
20,TCCCGAAAAGTCTCCGAGA,0.224
21,TCCCGGCTAGTGTGGGAGA,0.221
22,TCCCGCAGAGTTCCGGAGA,0.218
23,TCCCTACGAGTCAACGAGA,0.31
24,TCCCCTTCAGTTGCAGAGA,0.471
25,TCCCTCATAGTTCAAGAGA,0.311
26,TCCCTTTTAGTGAAGGAGA,0.373

row,Sequence,TetR repression strength
1,TCCCCGCTAGTGTTCGAGA,0.289
2,TCCCACATAGTGGCGGAGA,0.203
3,TCCCCATCAGTCGTGGAGA,0.207
4,TCCCGTGCAGTGTCTGAGA,0.362
5,TCCCGCTTAGTGTGAGAGA,0.106
6,TCCCAGGGAGTTCTTGAGA,0.418
7,TCCCAGTGAGTTTGAGAGA,0.218
8,TCCCGCCGAGTGGGAGAGA,0.257
9,TCCCTCGGAGTACATGAGA,0.104
10,TCCCGAGCAGTGATTGAGA,0.701
11,TCCCAGCGAGTTGCCGAGA,0.0792
12,TCCCGCCTAGTCTACGAGA,0.367
13,TCCCGTGAAGTATGTGAGA,0.144
14,TCCCTATCAGTGAATGAGA,0.781
15,TCCCGAACAGTCTAAGAGA,0.41
16,TCCCACCTAGTGGCAGAGA,0.305
17,TCCCGCTGAGTGTCAGAGA,1.09
18,TCCCACCAAGTGTTCGAGA,0.311
19,TCCCATTAAGTATCGGAGA,0.454
20,TCCCCTACAGTCTTCGAGA,0.28
21,TCCCATCGAGTTCCAGAGA,0.213
22,TCCCGTCCAGTCGAGGAGA,0.157
23,TCCCGTGTAGTGCATGAGA,0.0882
24,TCCCGTGAAGTCAGGGAGA,0.224
25,TCCCATCGAGTGGGAGAGA,0.259
26,TCCCTGCTAGTTGTGGAGA,0.0589

row,Sequence,TetR repression strength
1,TCCCCGGCAGTGTGAGAGA,0.18
2,TCCCACGTAGTGAACGAGA,0.207
3,TCCCGATGAGTATGAGAGA,0.442
4,TCCCAAACAGTTCGAGAGA,0.212
5,TCCCTATCAGTGCTCGAGA,0.993
6,TCCCACAAAGTGCCTGAGA,0.126
7,TCCCTTTGAGTGATAGAGA,0.446
8,TCCCTCTCAGTGAAAGAGA,0.574
9,TCCCTAGAAGTTCCTGAGA,0.311
10,TCCCCGTTAGTCGGTGAGA,0
11,TCCCGTCGAGTGTGGGAGA,0.186
12,TCCCATCGAGTCCCCGAGA,0.504
13,TCCCTTGTAGTTGTTGAGA,0.42
14,TCCCACGCAGTAGCGGAGA,0.151
15,TCCCAATGAGTACATGAGA,0.207
16,TCCCGGTAAGTTTCCGAGA,0.338
17,TCCCACATAGTTCTAGAGA,0.364
18,TCCCGCATAGTACAGGAGA,0.125
19,TCCCTCGGAGTGGGTGAGA,0.988
20,TCCCTGTTAGTCGCGGAGA,0.512
21,TCCCTCGAAGTATGCGAGA,0.119
22,TCCCTTGGAGTAAGGGAGA,0.189
23,TCCCTCGAAGTAACGGAGA,0.0678
24,TCCCGGCAAGTGATGGAGA,0.227

# — a collection of fitness landscapes (doi:10.1038/s41467-024-54723-y)
